Reference: the BET-seq Pho4 binding data (Le et al. 2018)
Some of the results follow. Values were computed here from the reads of four pooled replicates and scatter widely.

target: T1, Pho4 (S. cerevisiae) (UniProt P07270); test: relative binding free energy (BET-seq); higher = weaker binding; conditions: reference: library average
T1 sequence: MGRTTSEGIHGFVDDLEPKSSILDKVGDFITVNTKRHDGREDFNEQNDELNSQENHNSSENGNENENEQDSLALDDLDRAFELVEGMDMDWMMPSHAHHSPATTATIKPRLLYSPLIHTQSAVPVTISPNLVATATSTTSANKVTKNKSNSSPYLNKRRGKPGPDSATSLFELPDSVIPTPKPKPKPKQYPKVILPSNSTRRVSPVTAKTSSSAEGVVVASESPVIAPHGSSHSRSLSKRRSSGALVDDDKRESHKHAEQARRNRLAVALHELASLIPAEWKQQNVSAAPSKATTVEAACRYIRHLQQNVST

| Sequence | relative binding free energy |
| --- | --- |
| TTATTCACGTGGTATT | 0.25 kcal/mol |
| TGGTCCACGTGGTTAT | 0.06 kcal/mol |
| GGAGCCACGTGGGTTA | -0.19 kcal/mol |
| GATTTCACGTGGTTGA | 0.26 kcal/mol |
| AATTTCACGTGTATTC | 0.28 kcal/mol |
| GTATACACGTGTATGA | 0 kcal/mol |
| GGTAACACGTGGCGGA | 0.09 kcal/mol |
| TGAAGCACGTGTATTG | -0.1 kcal/mol |
| TGATACACGTGTTCTT | 0 kcal/mol |
| TTGTGCACGTGAACTT | 0.1 kcal/mol |
| CCATTCACGTGGGGGA | 0.26 kcal/mol |
| AGTATCACGTGTCTGG | 0.22 kcal/mol |
| GATTGCACGTGTTCGG | 0.16 kcal/mol |
| GAGTTCACGTGATGTG | 0.35 kcal/mol |
| TAATGCACGTGCATGG | -0.07 kcal/mol |
| GTTTGCACGTGCTATG | -0.01 kcal/mol |
| GGTCACACGTGAGTAT | 0.3 kcal/mol |
| TAGATCACGTGTGAGT | 0.24 kcal/mol |
| GATCACACGTGTGGGT | 0.15 kcal/mol |
| GGGTGCACGTGAGAAT | 0.17 kcal/mol |
| TATAGCACGTGGGGAG | -0.25 kcal/mol |
| GAAATCACGTGGGTTG | 0.03 kcal/mol |
| TGTCGCACGTGTAACG | 0.27 kcal/mol |
| TTGATCACGTGGTGGC | 0.04 kcal/mol |
| CCGTGCACGTGTGGGT | -0.05 kcal/mol |

| Sequence | relative binding free energy |
| --- | --- |
| GTCGACACGTGGTGTA | -0.07 kcal/mol |
| TGGGTCACGTGAGCCT | 0.18 kcal/mol |
| AGCTTCACGTGAATTT | 0.39 kcal/mol |
| GGCGGCACGTGTGGGA | 0 kcal/mol |
| CTGGTCACGTGCGTCG | 0.05 kcal/mol |
| CGGGGCACGTGAGCGA | 0.08 kcal/mol |
| GGCGTCACGTGCGGAG | 0.08 kcal/mol |
| TTTGACACGTGATTGT | 0.19 kcal/mol |
| GTCCGCACGTGGGGTA | -0.13 kcal/mol |
| TTCATCACGTGATTTA | 0.18 kcal/mol |
| GTAGTCACGTGAATAT | 0.27 kcal/mol |
| AGAGTCACGTGGCATG | 0.15 kcal/mol |
| TGTTTCACGTGGGCAT | 0.06 kcal/mol |
| TGGGTCACGTGTCATA | 0.18 kcal/mol |
| TTTGTCACGTGGCGCG | 0.01 kcal/mol |
| ATAGTCACGTGAAGGA | 0.48 kcal/mol |
| AGAGTCACGTGTCTGT | 0.04 kcal/mol |
| TCTGTCACGTGAAAGT | 0.35 kcal/mol |
| GGATTCACGTGGTTGC | 0.33 kcal/mol |
| ATTATCACGTGAGATT | 0.26 kcal/mol |
| AGAATCACGTGTTTCG | 0.22 kcal/mol |
| AGTGTCACGTGTGGTA | 0.12 kcal/mol |
| TAGGGCACGTGAGGGA | 0.19 kcal/mol |
| GGCGGCACGTGGATCG | -0.07 kcal/mol |
| TCGGGCACGTGGGAAG | -0.11 kcal/mol |

| Sequence | relative binding free energy |
| --- | --- |
| GAGGGCACGTGTAAGG | -0.03 kcal/mol |
| AAGTGCACGTGGATTA | -0.11 kcal/mol |
| GGTATCACGTGTTGAG | 0.24 kcal/mol |
| GGCTTCACGTGGTTGT | 0.24 kcal/mol |
| GTATTCACGTGGTATA | 0.17 kcal/mol |
| GTAAGCACGTGCATGT | -0.01 kcal/mol |
| AGGGTCACGTGGCAGA | -0.04 kcal/mol |
| CCTGGCACGTGTTAGT | 0.01 kcal/mol |
| TTTGACACGTGAGACT | 0.23 kcal/mol |
| GGGTGCACGTGTTGGG | 0.08 kcal/mol |
| TATTACACGTGGAAGG | 0.15 kcal/mol |
| GAGAGCACGTGGTATA | -0.19 kcal/mol |
| GTTCTCACGTGTGTAT | 0.23 kcal/mol |
| TTTGTCACGTGATGTT | 0.24 kcal/mol |
| CATTCCACGTGTGGGG | 0.12 kcal/mol |
| CTAGTCACGTGTGCTG | 0.07 kcal/mol |
| AGGTACACGTGTGTGA | 0.09 kcal/mol |
| GGTGACACGTGCCGTT | 0.1 kcal/mol |
| TTTTCCACGTGGGGGC | -0.1 kcal/mol |
| TGTCTCACGTGGTAAT | 0.15 kcal/mol |
| CGTATCACGTGGGCCG | 0.24 kcal/mol |
| GGGAGCACGTGTAGGC | -0.1 kcal/mol |
| CCAAGCACGTGGGGGT | -0.23 kcal/mol |
